PubChem BioAssay AID1468 (National Center for Advancing Translational Sciences (NCATS), 2008)
Among all 280,000 compounds or so, about 1,100 (0.39%) were called active. Inconclusive means that the source gave no clear call. Such entries were picked first, then a sample of the others. Calls come from the whole dose curve; as a rule, active = well fitted inhibition curve with a large enough effect; inconclusive = small, poorly fitted or top-dose-only effect, or effect the other way; inactive = flat fitted curve, though single readings scatter. Potencies of inconclusive entries are left out as doubtful fits.

Target: Microtubule-associated protein tau (Homo sapiens) (UniProt P10636)
UniProt P10636, sequence (P10636 whole entry, looked up): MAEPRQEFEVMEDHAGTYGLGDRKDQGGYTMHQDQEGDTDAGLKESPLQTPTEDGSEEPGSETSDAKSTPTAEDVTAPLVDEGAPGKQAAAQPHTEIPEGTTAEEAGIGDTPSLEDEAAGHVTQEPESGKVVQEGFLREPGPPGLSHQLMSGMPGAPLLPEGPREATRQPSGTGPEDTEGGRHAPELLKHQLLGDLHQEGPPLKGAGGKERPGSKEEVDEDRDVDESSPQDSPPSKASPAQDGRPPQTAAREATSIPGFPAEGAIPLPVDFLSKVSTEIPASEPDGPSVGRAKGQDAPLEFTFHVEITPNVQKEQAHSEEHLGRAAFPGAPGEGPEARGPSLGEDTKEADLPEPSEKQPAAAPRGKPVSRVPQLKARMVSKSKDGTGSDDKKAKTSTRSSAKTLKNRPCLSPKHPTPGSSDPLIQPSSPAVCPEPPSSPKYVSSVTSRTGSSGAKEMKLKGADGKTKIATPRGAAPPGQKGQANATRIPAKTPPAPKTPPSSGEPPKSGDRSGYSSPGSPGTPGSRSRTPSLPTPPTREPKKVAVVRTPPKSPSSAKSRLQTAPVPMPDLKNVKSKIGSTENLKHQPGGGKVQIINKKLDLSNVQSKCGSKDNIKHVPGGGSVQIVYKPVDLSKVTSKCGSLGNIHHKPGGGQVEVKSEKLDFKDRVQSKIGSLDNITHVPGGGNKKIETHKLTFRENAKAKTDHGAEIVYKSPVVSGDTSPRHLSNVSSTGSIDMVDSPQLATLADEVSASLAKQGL
Assay: qHTS for Inhibitors of Tau Fibril Formation, Fluorescence Polarization; note: nearly all actives have a fitted effect of over 55% in size
Settings: K18 P301L tau heparin fibrillization, Alexa594 FP, 6 h; series mostly up to 57.7 µM
Outline: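 Read-out: fluorescence polarization of Alexa 594-labeled tau (0.24 uM), 555 nm excitation, 632 nm emission. Mixtures held 15 uM unlabeled K18 P301L, compound and 20 uM heparin, pH 7 acetate buffer, incubated 6 hr at 37 C.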
Potency is the fitted concentration of half-maximal effect; tags give direction and shape of the fitted curve.

Structure (SMILES) | Potency
CCCCN(C)CCn1c(=S)[nH]c2cc(OCC)c(OCC)cc2c1=O | inactive
COc1ccc(NC(=O)Cn2c(=O)n(Cc3ccccc3)c(=O)c3oc4ccccc4c32)cc1Cl | active: 28.2 µM
O=c1c(-c2nn[nH]n2)coc2ccc(Cl)cc12 | inactive
Cn1c2c(c(=O)n(C)c1=O)[C@@]1(C(=O)Nc3ccccc31)C(C#N)=C(N)O2 | inconclusive [inhibitor, partial curve]
Cc1ccc(Cl)cc1N1CCN(C(=O)CCS(=O)(=O)c2cccc3nonc23)CC1 | inconclusive [activator, partial curve, poor fit]
COc1cccc(-c2csc(-c3c(N)c(C(=O)c4ccccc4)n4ccccc34)n2)c1 | inactive
CCOC(=O)C(C)Sc1nc(=O)n2ccccc2n1 (stereo not given) | inactive
Cc1cc(=O)[nH]c(N/N=C/c2ccc(N(C)C)cc2)n1 | inconclusive [inhibitor, single point]
CCOc1cc(C)c(S(=O)(=O)NC2CCCCC2)cc1C | inconclusive [activator, single point]
CCc1cccc(NC(=O)CSc2ncc3c(n2)-c2ccccc2N(CC)S3(=O)=O)c1 | inconclusive [inhibitor, full curve]
COc1cc(C2C(C#N)=C(N)OC3=C2C(=O)CC(C)(C)C3)c([N+](=O)[O-])cc1OC (stereo not given) | inconclusive [activator, single point]
Nc1c[n+](N2CCOCC2)no1 | inconclusive [inhibitor, full curve]
O=C(O)CCc1nnc2cnc3ccccc3n12 | inactive
CC1=NN(c2ccccc2)C(=O)/C1=C/C=C/c1ccccc1 | inconclusive [inhibitor, partial curve]
Cc1cccc(C)c1OCc1nc2ccccc2c(=O)n1/N=C/c1ccc(OCC(=O)O)cc1 | inactive
Cc1ccc2ncc(C(=O)NC(C)c3ccccc3)c(=O)n2c1 (stereo not given) | inactive
Cc1ccc(C(=O)Nc2nnc(S(=O)(=O)N3CCN(c4ccc(F)cc4)CC3)s2)cc1 | inactive
CSc1nc(N)c2ncn([C@@H]3O[C@H](COP(=O)(O)OP(=O)(O)OP(=O)(O)O)[C@H](O)[C@H]3O)c2n1 | inactive
O=C(Cn1c(=O)oc2cc(S(=O)(=O)NCc3ccccc3)ccc21)NCc1ccccc1Cl | inconclusive [inhibitor, single point]
O=C(NCc1ccco1)/C(=C\c1ccco1)NC(=O)c1ccco1 | inconclusive [inhibitor, single point]
CC1(C)CC(=O)C2=C(C1)N1CCCCC1CC2=O (stereo not given) | inconclusive [inhibitor, full curve, poor fit]
CN(c1ccc(OCC(=O)OCC(=O)Nc2ccccc2)cc1)S(=O)(=O)c1ccc(F)cc1 | inconclusive [inhibitor, single point]
Cc1[nH]c2ccccc2c1/C=N/Nc1ccccc1[N+](=O)[O-] | inconclusive [inhibitor, full curve]

Structure (SMILES) | Potency
CCN1CCOC(=O)C1CC(=O)Nc1cc(Cl)ccc1C (stereo not given) | inactive
O=[N+]([O-])C(/C=C(/Cl)[N+](=O)[O-])=C(N1CCCCC1)N1CCCCC1 | inactive
COc1ccc(/C=C/C=C2\N=C(SC)SC2=O)cc1 | inconclusive [inhibitor, single point]
CCOCCc1nn2c(=O)cc(COC(=O)c3ccccc3NC(=O)CC(C)C)nc2s1 | inactive
C=C1C(=O)O[C@H]2C1CC[C@@](C)(O)C13C=CC(C)(C21)C1(C3)C(=O)O[C@@H]2C3C(C)=CCC3[C@](C)(O)C[C@H](OC(C)=O)C21 (stereo not given in full) | inconclusive [inhibitor, single point]
CCOc1ccc(-c2noc(CSc3nnc(Cc4ccccc4)n3-c3ccc(F)cc3)n2)cc1 | inconclusive [activator, single point]
O=C(Nc1ccc(Cc2ccncc2)cc1)C1CC1 | inactive
COc1cccc(N2CCN(c3ncnc4c3[nH]c3ccc(F)cc34)CC2C)c1 (stereo not given) | inconclusive [activator, single point]
CCOC(=O)NC1(Nc2ccc(Cl)cn2)Oc2ccccc2O1 | inconclusive [inhibitor, partial curve, poor fit]
O=C(Nc1ccc(Cl)cc1)c1ccc(OCC2CCCO2)cc1 (stereo not given) | inactive
O=C1c2cccc3cccc(c23)C(=O)N1OS(=O)(=O)c1ccc(Br)cc1 | inconclusive [inhibitor, full curve]
CCc1nnc(NC(=O)CSc2nc(-c3ccc(F)cc3)cc(-c3ccccc3)c2C#N)s1 | inactive
Cc1nonc1OCCCNc1ccc([N+](=O)[O-])cc1Cl | inconclusive [inhibitor, partial curve, poor fit]
Fc1ccc(CSc2nnc(-c3cc4c(s3)-c3ccccc3CC4)o2)cc1 | inconclusive [inhibitor, single point]
CCOc1ccc(-n2nc3ccc(NC(=O)c4ccc(C)cc4C)cc3n2)cc1 | inconclusive [inhibitor, partial curve, poor fit]
O=C(Nc1nc(-c2cc(Cl)sc2Cl)cs1)c1cccs1 | inconclusive [inhibitor, full curve, poor fit]
O=C1Nc2ccccc2C1(O)C/C(=N/O)c1ccccc1 (stereo not given) | inactive
Cn1c(=O)[nH]c(=O)c2c1nc(Br)n2CCSc1ncccn1 | inconclusive [inhibitor, single point]
O=C(c1nn(Cc2ccccc2)c(=O)c2ccccc12)N1CCN(C/C=C/c2ccccc2)CC1 | inconclusive [activator, single point]
Cc1ccc(NC(=O)c2nc[nH]c2C(=O)N2CCC(C)CC2)cc1 | inactive
C=CCc1ccc(OCCCCCN2CCOCC2)c(OC)c1 | inactive
Cc1ccc(C)n1-c1ccc(N(C)C)cc1 | inconclusive [inhibitor, partial curve]
